Reference: article PMC4336329 (PLoS ONE, 2015)
The campaign covered roughly 310,000 compounds. About 14,000 (4.5%) showed an effect of 50% or more. The effect is printed as a negative number. This is one part of the list.

Each molecule was assayed against human ether-à-go-go-related gene (hERG) potassium channel (human, UniProt Q12809) (assay: primary screen, population patch clamp on CHO cells stably expressing hERG).
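Note: peak tail current of the secondary pulse compared with the same well before compound.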

Sequence of human ether-à-go-go-related gene (hERG) potassium channel (Q12809 whole entry, looked up): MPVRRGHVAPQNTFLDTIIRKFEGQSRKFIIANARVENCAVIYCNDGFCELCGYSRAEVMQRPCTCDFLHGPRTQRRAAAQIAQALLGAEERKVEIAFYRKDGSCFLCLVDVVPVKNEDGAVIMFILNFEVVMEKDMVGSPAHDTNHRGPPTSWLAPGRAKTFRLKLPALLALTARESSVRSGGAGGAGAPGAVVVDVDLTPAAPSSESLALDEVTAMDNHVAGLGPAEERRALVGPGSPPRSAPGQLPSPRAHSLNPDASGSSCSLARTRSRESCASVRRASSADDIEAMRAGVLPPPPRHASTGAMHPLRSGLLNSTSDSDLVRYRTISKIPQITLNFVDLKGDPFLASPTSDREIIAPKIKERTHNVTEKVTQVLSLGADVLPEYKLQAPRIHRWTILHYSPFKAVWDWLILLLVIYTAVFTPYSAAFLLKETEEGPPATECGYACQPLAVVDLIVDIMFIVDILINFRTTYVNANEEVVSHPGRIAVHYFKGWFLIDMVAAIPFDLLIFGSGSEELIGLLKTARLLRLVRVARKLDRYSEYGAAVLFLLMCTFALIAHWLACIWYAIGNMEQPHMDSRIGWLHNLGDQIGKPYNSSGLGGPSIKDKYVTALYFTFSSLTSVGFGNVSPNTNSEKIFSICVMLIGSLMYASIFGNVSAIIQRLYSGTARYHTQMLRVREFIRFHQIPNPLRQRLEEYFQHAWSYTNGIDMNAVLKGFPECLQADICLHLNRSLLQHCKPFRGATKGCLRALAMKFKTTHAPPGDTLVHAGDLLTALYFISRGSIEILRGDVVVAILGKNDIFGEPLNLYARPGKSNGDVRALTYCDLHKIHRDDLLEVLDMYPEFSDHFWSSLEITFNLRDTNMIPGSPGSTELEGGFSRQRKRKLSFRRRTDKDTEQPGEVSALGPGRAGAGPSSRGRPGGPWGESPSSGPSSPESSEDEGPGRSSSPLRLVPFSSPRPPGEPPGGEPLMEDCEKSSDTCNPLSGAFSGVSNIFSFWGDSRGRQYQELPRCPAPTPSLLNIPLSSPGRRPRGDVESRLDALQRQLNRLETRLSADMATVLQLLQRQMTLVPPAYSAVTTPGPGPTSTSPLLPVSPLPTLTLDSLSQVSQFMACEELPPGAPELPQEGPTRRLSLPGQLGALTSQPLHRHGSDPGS

Structure (SMILES)	hERG current change (%, negative = inhibition) at 10uM
COc1cc(/C=N/Nc2nc(N3CCCC3)nc(N3CCCC3)n2)ccc1O	-37.7%
COc1ccc(CNCCC2(O)CC(C)N(C)CC2C)cc1OC.Cl (stereo not drawn)	6.43%
COc1ccc(NC(=O)Nc2ccc(F)cc2F)c(C)c1	11.7%
CC1(C)CC(=O)/C(=C(\O)c2ccccc2)C(=NCCc2ccccc2)C1	-5.55%
CC(C)c1ccc(NC(=O)CCNC(=O)Cn2cnc3ccccc3c2=O)cc1	22.9%
C/C=C/c1ccc(OCCCCN2CC(C)CC(C)C2)c(OC)c1.O=C(O)C(=O)O (stereo not drawn)	-81.6%
S=c1[nH]nc(-c2ccc(Cl)cc2)n1/N=C/C=C/c1ccco1	15.3%
Cc1cc(N=CC2=C(O)CCCC2=O)no1	5.28%
Cc1ccc(S(=O)(=O)N2CCN(C(=O)c3n[nH]c4ccccc34)CC2)cc1	0.636%
CCCOC1(NC(=O)c2ccccc2)C(C)=CC(=O)C=C1C	-16.7%
C[C@H](NC(=O)c1cc2c(cn1)[nH]c1ccccc12)C(=O)O	18.4%
COc1ccc(N2CCN(S(=O)(=O)CCNC(=O)/C=C/c3ccc4c(c3)OCO4)CC2)cc1	9.18%
O=C(CCn1c(=O)oc2ccccc21)N1CCOCC1	18.7%
CCO[C@@H]1OC(C(=O)N2CCN(Cc3ccc4c(c3)OCO4)CC2)=C[C@H](c2csc3ccccc23)[C@H]1CCCO	-7.31%
CCOc1ccc(S(=O)(=O)NCCC(=O)NCC(c2cccs2)N2CCOCC2)cc1 (stereo not drawn)	21.2%
Cc1cc(C(=O)N[C@@H](c2ccccc2)[C@]2(C)C[C@H]2[C@@H](C)C(=O)Nc2ccc3ccccc3c2)no1	2.67%
COC1=C/C(=C/c2c(N)n3nc(CC(=O)N4CCCCC4)sc3nc2=O)C=CC1=O	11%
O=C(O)COc1ccccc1/C=N/NC(=O)CSc1nnc(-c2ccc(Cl)cc2)n1C1CCCCC1	11.9%
C=CCc1c(C)nc2c(C)cccc2c1SC(=N)N.Cl	2.29%
CC(C)(C)OC(=O)NCCc1nnc(SCc2ccc(Cl)cc2)o1	-43.2%
CCOC(=O)N1CCC(NC(=O)CCc2cn(C)c3ccccc23)CC1	-16%
COc1cc(CC(NC(C)=O)C(=O)NC2CCN(c3nc(C)cc(C)c3C#N)CC2)cc(OC)c1 (stereo not drawn)	-4.62%

Structure (SMILES)	hERG current change (%, negative = inhibition) at 10uM
CC1=C([N+](=O)[O-])C(c2ccc(O)c(O)c2)NC(=O)N1 (stereo not drawn)	11.7%
Cc1cc(N/N=C/c2c(O)ccc3ccccc23)nc(-c2ccccc2O)n1	-3.98%
O=c1c(/C=N/O)coc2ccc(Cl)cc12	18.4%
C=CCn1c(=O)[nH]c2cc(C(=O)N3CCN(c4cccc(Cl)c4)CC3)ccc2c1=O	-15.9%
COc1ccc(N(C)C(=O)CCC(=O)Nc2ccc3nc(N4CCOCC4)cc(C)c3c2)c(OC)c1	-22.7%
Cn1c(=O)c2c(nc(NCCNC(=O)c3ccco3)n2Cc2ccc(F)cc2)n(C)c1=O	-5.2%
CCOC(=O)c1c(CN2CCCCC2)n(C)c2cc(Br)c(OC)cc12	-31.7%
COc1ccc(/C=N/n2c(SC)nnc(C(C)(C)C)c2=O)cc1	16.2%
Cc1ccc(-c2nnc(SCC(=O)n3c4c(c5ccccc53)CCCC4)o2)cc1	6.39%
O=C(NNS(=O)(=O)c1ccccc1F)c1sccc1-n1cccc1	6.12%
C/C(=N\Nc1ccccc1)c1c(O)n(C)c(=O)n(C)c1=O	6.62%
Br.O=C(CN1C2=NCCN2c2ccccc21)c1ccc(Br)cc1	-67.6%
Cc1ccc(Cl)cc1-n1c(SCC(=O)NCCC2=CCCCC2)nc2n[nH]c(C)c2c1=N	-11.7%
CC1(C)CC(=O)C=C(Nc2ccccc2NC(=O)c2cnccn2)C1	-64.7%
Cc1ccc(NC(=O)C2OCCc3ccccc32)cc1 (stereo not drawn)	1.37%
CCCn1c(=N)n(CC(O)COc2cccc(C)c2)c2ccccc21.Cl (stereo not drawn)	-71.3%
CCn1nc(C)c(CN2CCC(C(=O)Nc3cccc(-c4cccc(F)c4)c3)CC2)c1C	-67%
CN(CC(=O)Nc1cccc(F)c1)C(=O)c1ccc(COc2ccccc2)cc1	-2.76%
CCOc1cc(/C=C2/N=C(C)C(C(=O)OC)=C2O)ccc1O	-2.64%
COc1ccc(CC(=O)O/N=C(\N)c2cccc([N+](=O)[O-])c2)cc1	-17.4%
Nc1nonc1-c1nc2ccccc2n1CC(=O)N1CCCCC1	21%
CCC(=O)Oc1ccc(C(=O)Nc2cccc(C(=O)NC(C)(C)C)c2)cc1	-6.74%

Structure (SMILES)	hERG current change (%, negative = inhibition) at 10uM
C/C(N)=C(/C#N)C(=O)CSc1n[nH]c(-c2ccccc2Br)n1	-18%
COc1cc(NC(=O)C2=C(N3CCOCC3)/C(=C\c3ccc(N(C)C)cc3)CCC2)cc(OC)c1OC	15.4%
CC1Oc2ccccc2N(CC(=O)N(Cc2ccccc2)Cc2ccccn2)C1=O (stereo not drawn)	0.288%
O=C(CNc1n[nH]c(=O)[nH]c1=O)N/N=C/c1ccccc1	2.89%
Cc1ccc2nc3c(c(C(=O)O)c2c1)CCC3	2.29%
Cc1nc(NS(=O)(=O)c2cccc([N+](=O)[O-])c2)sc1C(C)(C)C	-5.09%
CCCCSc1nnc([C@H](CC(C)C)NC(=O)OC(C)(C)C)o1	-18.6%
c1ccc(CN2CCC(Nc3nc(-c4ccccc4)nc4ccccc34)CC2)cc1	-20.5%
O=C(Nc1cccs1)Nc1ccc(F)cc1F	0.132%
O=C(CSc1nnc(-c2ccco2)o1)c1ccccc1	5.97%
N#C/C(=C/c1cc[nH]c1)C(N)=S	14.2%
COc1ccc(C)cc1S(=O)(=O)N1CCN(C(=O)c2ncoc2-c2ccccc2C)CC1	5.28%
Cc1cc(C)cc(NC(=O)COC(=O)c2cccc(S(=O)(=O)N3CCCCC3)c2)c1	4.51%
CC1(C)Cc2ccccc2/C(=C/C(=O)N2CCCCCC2)N1.Cl	8.89%
CC(NC(=O)COC(=O)Cc1ccsc1)C1CC2CCC1C2 (stereo not drawn)	-12.1%
Fc1ccc(-c2nnc3n2CCCCC3)cc1	4.54%
CC(Cc1cccnc1)NC(=O)c1cc(COc2ccc(F)cc2Cl)on1 (stereo not drawn)	-35.4%
CCC1CCCCN1C(=O)COc1cc(=O)n(C)c2ccccc12 (stereo not drawn)	-10.1%
COc1ccccc1C1C(C#N)=C(N)Oc2c1oc(CO)cc2=O (stereo not drawn)	-4.95%
CCN(CC)c1ccc(N2C(=O)/C(=C/c3ccccn3)SC2=S)cc1	13.7%
CN1C(=O)C2C(c3ccc(N(C)C)cc3)=NN(Cc3ccccc3)C2C1=O (stereo not drawn)	-1.7%
CCOc1ccccc1NC(=O)n1ncc2c(C)cccc21	13.6%

Structure (SMILES)	hERG current change (%, negative = inhibition) at 10uM
Cc1cc(Cl)c(C)c(S(=O)(=O)N2CCN(C(=O)C3CCCO3)CC2)c1Cl (stereo not drawn)	-21.6%
COc1ccc(/C=C/C(=O)OCC(=O)Nc2ccc(S(N)(=O)=O)cc2)cc1OC	-2.78%
CCOc1ccc(S(=O)(=O)N2CN3CCN(C3)C2)cc1	2.12%
CN1CCN(S(=O)(=O)c2cccc(C(=O)Nc3sc4c(c3-c3nc5ccccc5[nH]3)CCCC4)c2)CC1	3.33%
CCOC(=O)c1ccccc1NC(=O)CSc1nnc(Cc2cccn2C)n1-c1ccc(C)cc1	-14%
Cc1cccc(C(=O)OCc2cncs2)c1	6.94%
CCOC(=O)c1c(C)[nH]c(N=Nc2ccccc2Cl)c1C	0.965%
COc1cc(S(=O)(=O)N2CCN(C)CC2)c(OC)cc1Br	-4.94%
Cc1ccccc1NC(=O)C(=O)NC(C)CCc1ccccc1 (stereo not drawn)	13.1%
Cc1ccc(N2CC(C(=O)OCC(=O)Nc3ccccc3C)CC2=O)cc1 (stereo not drawn)	8.97%
CC1CN(c2nnnn2-c2ccccc2)CC(C)O1 (stereo not drawn)	-23.1%
COC(=O)c1cccc(-c2ccc(C(c3c(C)[nH][nH]c3=O)c3c(C)[nH][nH]c3=O)o2)c1	8.18%
COc1ccccc1C1/C(=C(/O)c2ccccc2)C(=O)C(=O)N1CC(C)O (stereo not drawn)	5.05%
Cc1c(Cl)cccc1-c1ccc(/C=N/n2cnnc2)o1	-12.7%
Cc1cc(C(=O)NCc2ccccc2F)cs1	-0.387%
O=C(CSc1nc(=O)n(CCCN2CCOCC2)c2c1CCCC2)Nc1ccc(F)cc1	-43.7%
COCCN1CCN(C(=O)C2CCC(=O)N(Cc3ccccc3OC)C2)CC1 (stereo not drawn)	8.85%
Clc1ccc2nc(CSc3ncn[nH]3)cn2c1	2.26%
O=C(COC(=O)c1ccc(Cl)nc1)NNC(=O)c1ccc(Cl)cc1	12.5%
CC(C)=CCc1cc(-c2oc3cc(O)cc(O)c3c(=O)c2O)ccc1O	9.33%
CC(=O)Nc1cc([N+](=O)[O-])ccc1N1CCOCC1	-7.99%
